Results taken from the supplement of paper PMC8183993.
“And” between values parts separate entries of the source, which are not always exact repeats. Equal values may be shown once. Where a name gives a salt, the structure may show the parent alone. ± gives the standard deviation of the averaged measurements. Whole data set: some 3,200 compounds, median “nuclei count (viability) relative to DMSO” near 99, cut for the lowest 2% near 16. The list shows a part of the results.

test system: U2OS; test: nuclei count (viability) relative to DMSO (% of DMSO); higher = more viable cells; settings: 10 µM; 24 h
Description: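 Primary image-based screen in U2OS cells: compounds at 10 uM for 24 h, then a 1 h o-propargyl-puromycin (OPP) pulse, click labelling, and high-throughput microscopy. Mean cytoplasmic OPP intensity and nuclei count were normalised to DMSO wells within each plate (DMSO = 100) and averaged over triplicate plates.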

Compared with `CCCC(=O)Nc1ccc(OCC(O)CNC(C)C)c(C(C)=O)c1` (stereo not given) [Acebutolol hydrochloride], `CCCC(=O)Nc1cccc(NC(=O)c2ccccc2Br)c1` is higher in nuclei count: 90.8 for the first, 101 for the second.

First: CC(C)(C)OC(=O)N[C@H]1CCCCC/C=C\[C@@H]2C[C@@]2(C(=O)NS(=O)(=O)C2CC2)NC(=O)[C@@H]2C[C@@H](OC(=O)N3Cc4cccc(F)c4C3)CN2C1=O [Danoprevir]
Second: CO[C@H]1C[C@@H]2CC[C@@H](C)[C@@](O)(O2)C(=O)C(=O)N2CCCC[C@H]2C(=O)O[C@H]([C@H](C)C[C@@H]2CC[C@H](n3cnnn3)[C@H](OC)C2)CC(=O)[C@H](C)/C=C(\C)[C@@H](O)[C@@H](OC)C(=O)[C@H](C)C[C@H](C)/C=C/C=C/C=C/1C [Zotarolimus (ABT-578)]
The nuclei count of the first is higher: 100 for the first, 84.3 for the second.

Going from `CC1(C)C(=O)N(CCN2CCC(C(=O)c3ccc(F)cc3)CC2)c2ccccc21` to `CCN(CC)CC1CCCCN1CC(=O)N1c2ccccc2C(=O)Nc2cccnc21` (stereo not given), the nuclei count falls from 97.8 to 95.9.

First: NC(=O)Nc1sc(-c2ccc(F)cc2)cc1C(N)=O
Second: CC(C)(C)OC(=O)Nc1ccc(-c2cc(C(=O)NCCCCCCC(=O)NO)no2)cc1
The nuclei count of the first is higher: 47 ± 0.38 for the first, 31 for the second.

Going from `C[C@H](CCC(=O)O)[C@H]1CC[C@H]2[C@@H]3C[C@H](O)[C@@H]4C[C@H](O)CC[C@]4(C)[C@H]3CC[C@]12C` [Hyodeoxycholic acid (HDCA)] to `C[C@H](CCC(=O)NCCS(=O)(=O)O)[C@H]1CC[C@H]2[C@@H]3[C@H](O)C[C@@H]4C[C@H](O)CC[C@]4(C)[C@H]3C[C@H](O)[C@]12C` [Taurocholic acid], the nuclei count falls from 104 to 101.

Going from `O=C(Nc1ccccc1)OCC(CN1CCCCC1)OC(=O)Nc1ccccc1` (stereo not given) [Diperodon hydrochloride] to `O=C(OCCN1CCCCC1)c1c[nH]c2ccccc12`, the nuclei count rises from 101 to 102.

`CCN1CCN(c2ccc(Nc3cc(N(C)C(=O)Nc4c(Cl)c(OC)cc(OC)c4Cl)ncn3)cc2)CC1` and `COc1cc2ncnc(Nc3ccc(O)c(Br)c3)c2cc1OC` are within error of each other in nuclei count: 96.4 for the first, 98.3 ± 5.4 for the second.

First: Nc1nc(=O)[nH]cc1F [Flucytosine]
Second: C=C1[C@H](CO)[C@@H](O)C[C@@H]1n1cnc2c(=O)[nH]c(N)nc21 [Entecavir hydrate]
The nuclei count of the first is higher: 105 for the first, 101 for the second.

First: Clc1cc(Cl)c(OCC#CI)cc1Cl [Haloprogin]
Second: Nc1nnc(-c2cccc(Cl)c2Cl)c(N)n1 [Lamotrigine]
The nuclei count of the first is lower: 35.9 for the first, 105 for the second.

Going from `Oc1cc(O)cc(/C=C/c2ccc(O)c(O)c2)c1` [Piceatannol] to `COc1cc(C2Oc3ccc(C4Oc5cc(O)cc(O)c5C(=O)C4O)cc3OC2CO)ccc1O` (stereo not given) [Silymarin (Silybin B)], the nuclei count rises from 90.6 ± 9.5 to 108.

Going from `Cc1cc(Nc2cc(CN3CCOCC3)c3nc(C)c(Cc4ccc(Cl)cc4F)n3n2)n[nH]1` to `Cc1cccc(C)c1NC(=O)CN1CCN(CCCC(c2ccc(F)cc2)c2ccc(F)cc2)CC1` [Lidoflazine], the nuclei count rises from 42.8 to 103.

Compared with `CC[C@@]1(O)C(=O)OCc2c1cc1n(c2=O)Cc2cc3c(CN(C)C)c(O)ccc3nc2-1` [Topotecan], `O=C(O)c1ccc(O)c2ncccc12` is higher in nuclei count: 45.7 for the first, 99.5 for the second.

Going from `O=C1c2ccccc2-c2nc3nonc3nc21` to `Cc1cccn2c(=O)c(-c3nnn[nH]3)cnc12` [Pemirolast potassium], the nuclei count rises from 44 to 104.

Compared with `CCCCCS(=O)(=O)CCCCCCCCCCn1c(-c2ccc(O)cc2)c(C)c2cc(O)ccc21`, `CCCc1c(OCCCOc2ccc(OCC(=O)O)cc2)ccc(C(C)=O)c1O` is higher in nuclei count: 105 for the first, 108 for the second.

First: CC(=O)O[C@]1(C(C)=O)CC[C@H]2[C@@H]3C=C(C)C4=CC(=O)CC[C@]4(C)[C@H]3CC[C@@]21C [Megestrol Acetate]
Second: CC1(C)CC(=O)C(C2C3=C(CC(C)(C)CC3=O)Oc3ccccc32)C(=O)C1 (stereo not given)
The nuclei count of the first is higher: 108 for the first, 89 for the second.

First: CC(=O)O[C@]1(C(C)=O)CC[C@H]2[C@@H]3C=C(C)C4=CC(=O)CC[C@]4(C)[C@H]3CC[C@@]21C [Megestrol acetate]
Second: CC1=C(C(=O)O)N2C(=O)[C@@H](NC(=O)[C@H](N)c3ccccc3)[C@H]2SC1 [Cephalexin (Cefalexin)]
The nuclei count of the first is higher: 106 for the first, 103 for the second.

Compared with `O=C(c1ccc(Cl)cc1Cl)n1nnc2ccccc21`, `CN1CC(=O)N=C1NC(=O)Nc1cccc(Cl)c1` [Fenobam] is higher in nuclei count: 83.2 for the first, 98.4 for the second.

Going from `O=C1c2ccccc2CCC1CNCCc1ccc(O)cc1` (stereo not given) [HEAT hydrochloride] to `Nc1ccccc1NC(=O)c1ccc(CNc2nccc(-c3cccnc3)n2)cc1` [Mocetinostat (MGCD0103)], the nuclei count falls from 76.6 to 39.2.

Going from `Cc1nc(C)c(C)nc1C` [Tetramethylpyrazine] to `Cc1cccc(C)c1NC(=O)C[N+](C)(C)C`, the nuclei count rises from 101 to 106.

Compared with `Nc1nc(Nc2ccccc2)nc2c1ncn2[C@@H]1O[C@H](CO)[C@@H](O)[C@H]1O`, `CC(C)(C)NCC(O)COc1cccc2c1CC(O)C(O)C2` (stereo not given) [Nadolol] is lower in nuclei count: 101 for the first, 97 for the second.

First: Cc1ccc(S(=O)(=O)/C=C/C#N)cc1
Second: O=S(=O)(c1cccc2c(Cl)cccc12)N1CCCNCC1 [ML 9 hydrochloride]
The nuclei count of the first is lower: 32.5 for the first, 95.7 for the second.

First: CC[C@H](C)C(=O)O[C@H]1C[C@H](O)C=C2C=C[C@H](C)[C@H](CC[C@@H](O)C[C@@H](O)CC(=O)O)[C@H]21 [Pravastatin sodium salt]
Second: COc1ccc2c(c1)c(CC(=O)OCC(=O)O)c(C)n2C(=O)c1ccc(Cl)cc1 [Acemetacin]
The nuclei count of the first is higher: 104 for the first, 95.7 for the second.

Compared with `CC[C@H](C)C(=O)O[C@H]1C[C@H](O)C=C2C=C[C@H](C)[C@H](CC[C@@H](O)C[C@@H](O)CC(=O)O)[C@H]21` [Pravastatin sodium], `CCOCCn1c(N2CCCN(C)CC2)nc2ccccc21` [Emedastine] is lower in nuclei count: 102 for the first, 98.8 for the second.

First: CC[C@H](C)C(=O)O[C@H]1C[C@H](O)C=C2C=C[C@H](C)[C@H](CC[C@@H](O)C[C@@H](O)CC(=O)O)[C@H]21 [Pravastatin]
Second: O=C1CC2(CCCC2)CC(=O)N1CCCCNCC1COc2ccccc2O1 (stereo not given)
The nuclei count of the first is lower: 101 for the first, 105 for the second.

`O=C1C(O)=C(O)C(=O)C(O)=C1O` [Tetrahydroxy-1,4-quinone monohydrate] showed a nuclei count of 106.

With `NC(C(=O)O)c1ccc(C(=O)O)c(C(=O)O)c1` (racemic) the nuclei count was 102 and 111.
